This passage reports TGI and GI50 results from PubChem BioAssay (NCI).

This test concerns NCI-H322M lung. Briefly: DTP human tumour cell line panel, 48 h.

Values joined by “and” are separate entries in the source; they are usually repeats but may differ in a detail not shown here. Equal values may be shown once.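 Where inhibition never reached the appropriate level, the endpoint shown equals the highest concentration tested. Otherwise, values were interpolated linearly from a five-concentration, 48-hour dose response in 96-well plates. The concentration for 50% growth inhibition is given as GI50. TGI: total growth inhibition.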 Peptide text beside a SMILES is read from it. * marks the point of attachment. Boc = CC(C)(C)OC(=O)*; Bn = c1ccc(C*)cc1

Consider `CN1NC(c2ccccc2)=C(C#N)C(=O)CC1c1ccc(F)cc1` (stereo not given), for which the TGI (commonly the concentration giving total growth inhibition) is over 100 µM.
Turning to `COc1cc(CCC(=O)NC[C@@H](O)c2ccccc2)ccc1O`, the GI50 (usually the concentration giving 50% growth inhibition) was over 100 µM and the TGI was over 100 µM.
`Cc1ccccc1C(C(=O)NC1CCCCC1)N(C(=O)CNc1ccc(C#N)cc1)c1cccc(F)c1` (stereo not given): the GI50 is over 96.6 µM and the TGI is over 100 µM.
Take `O=[N+]([O-])c1ccc2c(c1)C(c1ccccc1Cl)=Nc1c(n[nH]c1-c1cccnc1)N2`: the GI50 is over 25 µM and the TGI was over 25 µM.
As for `COc1cc2nc3cc([N+](=O)[O-])ccc3c(NCCNCC(C)O)c2cc1OC` (stereo not given), the GI50 is 0.908 µM and the TGI is 4.64 µM.
For `CC(=O)OCCCC#CC#Cc1cccc(=O)o1`, in that order: 19.2 µM and 33.6 µM.
`O=C1C(=O)N(c2ccc(Cl)cc2)C(=O)C(=Nc2cccc3c(=O)[nH][nH]c(=O)c23)C1c1nc2ccccc2o1` (stereo not given) came in with a TGI of over 100 µM.
`COC(=O)CNc1nc(N(C)O)nc(N(C)O)n1`: the GI50 was 1.31 µM and the TGI was over 100 µM.
Turning to `NC(CCCCNCc1ccccc1)C(=O)O` (stereo not given), the TGI was over 100 µM.
Same read-out and setting: under `O=C1C=C(c2ccccc2)O/C1=C\C(=O)c1ccc(Cl)cc1` stands over 100 µM.
Still for that read-out and setting: as for `Cc1ccc(C(=O)N/N=C(\N=Nc2ccccc2Cl)c2ccc(N(C)C)cc2)cc1`, the figure is over 100 µM.
As for `C/C=C(\C)C(=O)O[C@H]1C=CC(=O)O[C@H]1COC(=O)[C@H](C)O`, the GI50 was 12.9 µM and the TGI worked out at 26.8 µM.
Turning to `COc1cccc(C2SCc3nc4ccccc4n32)c1` (stereo not given), the TGI was over 100 µM.
Same read-out and setting: under `O=c1[nH]c(=O)n(CCOc2ccc(Cl)cc2)cc1Nc1ccccc1` stands over 100 µM; under `O=S(=O)(CCC[C@H]1[C@@H](CCOCc2ccccc2)C2CCCN1O2)c1ccccc1` (stereo not given in full), over 100 µM.
Still for that read-out and setting: as for `C[N+]12C=CC=C1C(N1CCCC1)c1scc(-c3ccc(F)cc3)c12` (stereo not given), the figure is over 100 µM.
In the case of `C=C1C(=O)O[C@H]2[C@H]1CC/C(CNC(=O)/C=C/c1ccccc1F)=C\CC[C@@]1(C)O[C@@H]21`, the GI50 was 10.9 µM and the TGI stood at 22.9 µM.
`CC(=O)Oc1ccc2cc(-c3ccc(OC(C)=O)c(OC(C)=O)c3)c(=O)oc2c1` returned a TGI of over 100 µM.
Regarding `Cc1ccc(-c2nnc3s/c(=C\c4ccc(N(C)C)cc4)c(=O)n23)cc1`, the TGI is over 100 µM.
`O=c1cccc2n1CC1CNC[C@H]2C1` gave a total growth inhibition concentration (TGI) of over 100 µM.
Same read-out and setting: as for `O=CN1CCC23CC(O)CCC2C1Cc1cc(Oc2nnnn2-c2ccccc2)cc(O)c13` (stereo not given), the figure is over 100 µM; as for `CCCC[C@H]1C(=O)O[C@H](C)[C@H](NC(=O)c2cccc(NC=O)c2OC)C(=O)O[C@@H](C)[C@@H]1OC(=O)CC(C)C` (tested in a mixture with another compound), 49.2 µM; as for `COC(=O)c1ccc2c(c1)sc1nc(-c3ccc(OC)cc3)cn12`, over 100 µM.
Regarding `O=C(O)c1cn(C2CC2)c2cc(N3CCN(Cc4c(O)ccc5ccccc45)CC3)c(F)cc2c1=O`, the GI50 was 8.42 µM and the TGI was over 100 µM.
In turn, `O=C(O)CCCN=C(C1=C(O)C(=O)N(c2ccccc2)C1=O)c1ccccc1` yielded a TGI of over 100 µM.
As to `COc1cc(CNc2c3ccccc3nc3ccccc23)cc(OC)c1OC`, the TGI came out at 18.9 µM.
On to `O=C(c1ccccc1)c1nc2ccc(C(F)(F)F)cc2nc1N1CCN(c2ccccc2)CC1`, for which the GI50 is over 100 µM and the total growth inhibition concentration (TGI) was over 100 µM.
`CC(C)=NNC(=S)NC12CC3CC(CC(C3)C1)C2`: the TGI is over 100 µM.
Regarding `NC(N)=Nc1ccc(/C=C2\C=Cc3ccccc32)cc1`, the GI50 was 4.47 µM and the TGI turned out to be 17.5 µM.
Consider `CNC(=O)C(CC(C)C)NC(=O)C(C)NC(=O)C(Cc1ccc(OCc2ccccc2)cc1)NC(=O)C(COCc1ccccc1)NC(=O)OC(C)(C)C` (stereo not given) (Boc-S(Bn)Y(Bn)AL-NHMe; configuration not given here), for which the TGI is over 100 µM.
Consider `COc1ccc2c(c1)C(c1cc(OC)c3c(c1)OCO3)C1=C(COC1=O)N2` (stereo not given), for which the GI50 was 4.13 µM and the TGI was over 100 µM.
As for `CC(=O)n1[nH]c(=O)n(-c2ccccc2)c1=O`, the TGI is over 100 µM.
Still for that read-out and setting: under `O=C1CS(=O)(=O)C(c2cccc(Oc3ccccc3)c2)N1C1CC1` (stereo not given) stands over 100 µM.
Same read-out and setting: under `C=CCCCC1(C)CCNC1=S` (stereo not given) stands over 100 µM; under `CS(=O)(=O)O[C@H]1[C@H](O)c2ccccc2[C@@H]1N=[N+]=[N-]`, over 100 µM.
Take `Cc1ccsc1-c1ccc2c(c1)COC2(CCCN(C)C)c1ccc(F)cc1` (stereo not given): the GI50 was 2.65 µM and the TGI amounted to 13.8 µM.
Regarding `CC1(C)CCC(C)(C)c2cc(NC(=O)c3ccc(C(=O)O)cc3)ccc21`, the TGI was over 100 µM.
Take `O=c1oc2ccc(Br)cc2c(=O)n1-c1ccc(Cl)cc1F`: the GI50 is 0.564 µM and the TGI was over 27.3 µM.
`CCCCC1(O)CC2CC1C(C)C2(C)C` (stereo not given) gave a TGI of over 100 µM.
In the case of `CN(C)CCOc1ccccc1NC1=C(Cl)C(=O)C(Nc2ccccc2OCCN(C)C)=C(Cl)C1=O`, the GI50 was 22.7 µM and the TGI was over 62.7 µM.
On to `COc1ccc(NC(=O)c2ccc(NC3=C(Cl)C(=O)N(Cc4ccccc4)C3=O)cc2)c(OC)c1`, for which the GI50 is 27.4 µM and the TGI came to 98.2 µM.
In turn, `COc1cc(C2OC[C@@H]3C(=O)OC[C@H]23)cc(O)c1OC` (stereo not given in full) gave a TGI of over 100 µM.
For `O=C(O)c1ccc([C@@H]2C(=O)N(O)[C@@H]3C=CC[C@@H]32)cc1`, the TGI was over 100 µM.
Take `NCCSC(c1ccccc1)(c1ccccc1)c1ccccc1`: the GI50 is 0.545 µM and the TGI worked out at 7.9 µM.
Regarding `O=C(CN=C(CN(c1ccccc1)c1ccccc1)Oc1ccc(Cl)cc1Cl)n1ccnc1`, the TGI was over 100 µM.
On to `CC(C)C(=O)c1c(C(F)(F)F)n([O-])c2ccccc2[n+]1=O`, for which the GI50 was 2.77 µM and the TGI came to 11.2 µM.
`NC(=O)CCSC(CC(=O)c1ccc(Cl)cc1)c1ccc(Cl)cc1` (stereo not given) returned a total growth inhibition concentration (TGI) of over 100 µM.
`O=C([CH-]C(=O)c1ccccc1)c1ccccc1.O=C([CH-]C(=O)c1ccccc1)c1ccccc1.O=C([CH-]C(=O)c1ccccc1)c1ccccc1.[Cl-].[Hf+4]`: the GI50 is 25.3 µM and the TGI was over 100 µM.
In the same order, the values of `Cn1cc(C2=C(c3cn(CCCCCO)c4ccccc34)C(=O)NC2=O)c2ccccc21` are 6.73 µM and 19.9 µM.
Take `CN1CCN(CCCN2c3ccccc3Sc3ccc(Cl)cc32)CC1`: the GI50 is 50.5 µM and the TGI was found to be 81.9 µM.
On to `c1ccc2c(CNCCCCCCCCNCc3cccc4ccccc34)cccc2c1`, for which the total growth inhibition concentration (TGI) worked out at 3.65 µM.
Consider `CN(C)C(=NC#N)N(Cc1ccccc1)Cc1ccccc1`, for which the TGI was over 100 µM.
Still for that read-out and setting: as for `CC(C)(C)[Si](C)(C)OCC1OC(n2ccc(=O)[nH]c2=O)C(O[Si](C)(C)C(C)(C)C)[C@]12O[C@@H]2CO` (stereo not given in full), the figure is 36.7 µM.
Turning to `Cc1ccc(OCCOCCOCCOCCOCCOc2ccc(C)n(O)c2=S)c(=S)n1O`, the GI50 was 0.0369 µM and the TGI came out at 25.1 µM.
`COc1cc(/C=C2\N=C(c3ccccc3)N(c3nc4ccc(Sc5ccccc5)cc4[nH]3)C2=O)cc(OC)c1OC` had a TGI of over 100 µM.
Same read-out and setting: as for `Cc1ccsc1C(=S)Nc1ccc(Cl)c(/C=N/OC(C)C)c1`, the figure is over 100 µM.
Same read-out and setting: as for `COc1ccc(N=Nc2c(N)nn(C)c2N)cc1`, the figure is over 100 µM.
With `Cc1ccc2c3c1[C@@H]1O[C@@H]1c1cccc(c1-3)[C@@H]1O[C@H]21`, the TGI stood at 29.8 µM.
In the case of `CN(C)CC1CCC/C(=C\c2ccccc2)C1=O` (stereo not given), the TGI was 32.6 µM.
Consider `CCC1(c2ccc(N)cc2)CCC(=O)NC1=O` (stereo not given), for which the TGI is over 3870 µM.
`Cc1cc2c(cc1Cl)SC(NNC1=NCCN1)=NS2(=O)=O`: the TGI was over 10 µM.
Same read-out and setting: under `O=C(O)Cc1ccc(N=Nc2c(O)c(C(=O)O)cc3ccccc23)cc1` stands over 100 µM.
The same measure, in the same setting: under `Cn1c2cn[nH]c(=O)c2c2ccc3ccccc3c21` stands over 100 µM; under `C(#CC1(Nc2ccccc2)CCN(Cc2ccccc2)CC1)C1(Nc2ccccc2)CCN(Cc2ccccc2)CC1`, over 31.6 µM.
On the same count and under the same terms, as for `Cc1ccc(S(=O)(=O)OCCOCCOCCOCCOCCOS(=O)(=O)c2ccc(C)cc2)cc1`, the figure is 97.5 µM.
On to `CC1Cc2ccccc2N1C(=O)Cc1nc(N2CCOCC2)cc(=O)[nH]1` (stereo not given), for which the GI50 was 8.19 µM and 14 µM; the TGI was 64.7 µM and > 100 µM.
As to `CCCC(=O)OC[n+]1ccc(-c2c(COC(=O)NC(C)C)c(COC(=O)NC(C)C)c3n2CCC3)cc1`, the TGI is over 100 µM.
In the case of `COc1ccc(-c2cn(-c3cc(OC)c(OC)c(OC)c3)c(=O)[nH]2)cc1OC`, the GI50 is over 100 µM and the TGI was over 100 µM.
`COc1cc(C2C(=O)C(Cl)N2Nc2nc(C)cc(=O)[nH]2)cc(OC)c1OC` (stereo not given) had a TGI of over 100 µM.
On the same count and under the same terms, under `CC1=N[C@@](C)(C2CC3C=CC2C3=O)COC1=O` (stereo not given in full) stands over 100 µM.
The compound `CC(C)Cn1cnc2c(Cl)nc3ccccc3c21` came in with a TGI of over 100 µM.
As for `C=CC(=O)Nc1cccc(Oc2nc(Nc3ccc(N4CCN(C)CC4)cc3OC)ncc2Cl)c1`, the GI50 is 0.792 µM and the TGI stood at 4.92 µM.
`Nc1nn(C(=O)Nc2c(F)cccc2F)c2ccccc12`: the GI50 is over 100 µM and the TGI was over 100 µM.
For the compound `CCOC(=O)CN(c1ccccc1)c1nc(=[N+](C)C)ss1`, the TGI is over 100 µM.
The same measure, in the same setting: under `CN1CCN(Cc2nc3c(s2)CCc2sccc2-3)CC1` stands over 100 µM.
In the case of `Cn1c(=O)c(Oc2ccc(F)cc2F)cc2cnc(NC3CCOCC3)nc21`, the GI50 was over 25 µM and the TGI was over 25 µM.
Consider `Cc1ccc(C2=Nc3ccccc3S(=O)C(c3ccc4c(c3)OCO4)C2)cc1` (stereo not given), for which the TGI was over 100 µM.
Still for that read-out and setting: as for `CC(C(=O)n1ccnc1)N1c2ccccc2Sc2ccccc21` (stereo not given), the figure is over 100 µM; as for `COc1ccc2c(c1)[n+]([O-])c(/C(C)=N/NC(=O)c1ccccc1O)c(C)[n+]2[O-]`, over 100 µM; as for `COc1ccc(/C=C/C(=O)c2sc(-c3cccnc3)nc2C)cc1`, over 100 µM.
Still for that read-out and setting: under `O=S(=O)(c1cc(Cl)ccc1Cl)N1CCN(c2cccc(Cl)c2)CC1` stands over 100 µM.
On to `Cc1c2c(nn1-c1ccc(S(=O)(=O)NC(=S)NC(=O)c3ccccc3)cc1)-c1ccccc1CC2`, for which the GI50 is 24.5 µM and the total growth inhibition concentration (TGI) worked out at 81.4 µM.
